Data as given in PubChem BioAssay AID588342 (National Center for Advancing Translational Sciences (NCATS), 2011).
Hit rate of the full screen: of about 360,000 compounds, about 25,000 (6.9%) were called active. Inconclusive results, whose numbers are uncertain, are shown with a selection of clear calls. The call rests on the fitted dose curve; in most records, active means well fitted inhibition curve with a large enough effect; inconclusive means small, poorly fitted or top-dose-only effect; inactive means flat fitted curve, though single readings scatter. Potencies beside an inconclusive call are fits to weak or partial responses and may not hold up.

Biological target: Luciferin 4-monooxygenase (Photinus pyralis) (UniProt P08659)
Test: qHTS profiling assay for firefly luciferase inhibitor/activator using purifed enzyme and Km concentrations of substrates (counterscreen for miR-21 project); further: nearly all actives have a fitted effect of over 55% in size
Details: purified FLuc, luminescence inhibition; series mostly up to 57.5 µM
Method in brief: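 Purified P. pyralis luciferase, 10 nM final, with Km-level 10 uM D-luciferin and 10 uM ATP in 50 mM Tris acetate pH 7.5, 10 mM Mg acetate, 0.01% Tween-20, 0.05% BSA; 6-point qHTS titration about 60 µM downward; luminescence read.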
Potency means the concentration at half of the fitted maximal effect; tags describe the fitted curve by direction and shape.

UniProt P08659, sequence (P08659 whole entry, looked up): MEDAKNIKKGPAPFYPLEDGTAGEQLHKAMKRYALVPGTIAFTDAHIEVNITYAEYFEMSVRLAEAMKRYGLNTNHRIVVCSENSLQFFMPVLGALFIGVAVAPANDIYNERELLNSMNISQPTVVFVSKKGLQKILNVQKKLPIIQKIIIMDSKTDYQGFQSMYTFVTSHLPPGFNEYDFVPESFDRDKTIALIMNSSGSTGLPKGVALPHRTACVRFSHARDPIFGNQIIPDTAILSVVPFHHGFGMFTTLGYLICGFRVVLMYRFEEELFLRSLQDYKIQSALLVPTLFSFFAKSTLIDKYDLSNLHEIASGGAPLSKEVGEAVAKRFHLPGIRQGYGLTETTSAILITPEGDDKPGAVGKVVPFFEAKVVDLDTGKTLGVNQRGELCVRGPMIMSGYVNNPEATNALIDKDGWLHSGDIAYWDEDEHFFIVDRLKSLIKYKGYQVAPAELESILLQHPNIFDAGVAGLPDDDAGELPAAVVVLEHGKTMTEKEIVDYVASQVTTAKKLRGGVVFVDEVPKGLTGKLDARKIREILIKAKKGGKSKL

Structure (SMILES) | Potency
COc1ccc(NCC(O)COc2ccc(C(C)(C)C)cc2)cc1 (stereo not given) | inconclusive: 13.5 µM [inhibitor, partial curve, poor fit]
CC(=O)NC1=C(Nc2ccc(N(C)C)cc2)C(=O)c2ccccc2C1=O | active: 12 µM
Fc1ccc(-n2ncc3c(NCCCN4CCOCC4)ncnc32)cc1 | inconclusive: 19 µM [inhibitor, single point]
COc1ccc(C(=O)C(OC(=O)c2ccccc2)c2ccccc2)cc1 (stereo not given) | inconclusive: 15.1 µM [inhibitor, partial curve]
COc1ccc(/C=N/NC(=O)c2cc(-c3cccn3C)n[nH]2)cc1OC | inconclusive: 26.9 µM [inhibitor, single point]
N#C/C(=C\c1cn(-c2ccccc2)nc1-c1cc2ccccc2o1)c1nc2ccccc2[nH]1 | inconclusive: 21.3 µM [inhibitor, single point]
COc1cc(-c2nnc(SCCOc3ccc(Cl)cc3C)o2)cc(OC)c1OC | inconclusive: 12 µM [inhibitor, partial curve]
CC(C)n1cnc2cc(NCc3ccccc3O)ccc21 | active: 21.3 µM
O=C(Nc1ccc2nc(SCC(=O)N3CCCc4ccccc43)sc2c1)c1cccc(F)c1 | inactive
COc1ccccc1N(CC(=O)N/N=C/c1ccccc1C(=O)O)S(C)(=O)=O | inactive
CN(C)c1ccc(/C=C/c2ccc3ccccc3[n+]2C)cc1 | inconclusive: 23.9 µM [inhibitor, single point]
COc1ccccc1N1CCN(C(=O)c2sc3ncnc(N4CCN(c5ccccn5)CC4)c3c2C)CC1 | inactive
COc1ccc(NC(=S)NCc2ccc3c(c2)cc(C)n3C)cc1 | inconclusive: 21.3 µM [inhibitor, partial curve, poor fit]
CC(C)OP(=O)(OC(C)C)C(O)c1ccc(N(C)C)cc1 (stereo not given) | inactive
O=C(NC1CCCCCC1)c1ccc(N2CCCC2=O)cc1 | active: 13.5 µM
O=C(c1ccco1)n1nc(-c2ccccc2)nc1NCc1ccco1 | inactive
Cc1ccc2nc(-c3cccnc3)cc(C(=O)N3CCN(c4ccc([N+](=O)[O-])cc4)CC3)c2c1 | inconclusive: 7.57 µM [inhibitor, partial curve, poor fit]
Cc1cc(N2CCCCC2)nc2ccc(NC(=O)CCC(=O)NCCC(C)C)cc12 | active: 7.57 µM
O=C(NCCc1nc2ccccc2[nH]1)/C(=C/c1ccc2c(c1)OCO2)NC(=O)c1ccccc1 | inconclusive: 21.3 µM [inhibitor, single point]
O=C(/C=C/c1cn(-c2ccccc2)nc1-c1cccc(Cl)c1)N1CCN(c2ccccn2)CC1 | inconclusive: 9.53 µM [inhibitor, partial curve]
Cc1ccc(C2=NN=C(NC(=O)CSc3nc(C)cc(C)n3)SC2)cc1 | inconclusive: 26.9 µM [inhibitor, partial curve, poor fit]
CC(NC(=O)c1cc2cc(Br)ccc2oc1=N)c1ccccc1 (stereo not given) | inconclusive: 37.9 µM [inhibitor, partial curve, poor fit]
COc1cccc(CN2CCN(CC#Cc3ccccc3)CC2CCO)c1 (stereo not given) | inactive
COc1ccc(C(=O)Oc2cc(-c3ccc(OC)c(OC)c3)cc(=O)c3c(C)oc(C)c23)cc1 | inactive

Structure (SMILES) | Potency
O=C(Nc1nnc(-c2ccc(F)cc2)o1)c1ccco1 | active: 16.9 µM
O=C(Cc1ccccc1)Nc1cccc(N2C(=O)C=CC2=O)c1 | inconclusive: 16.9 µM [inhibitor, single point]
CCCOc1cccc(C(=O)Nc2cccc(NC(=O)c3ccc(Cl)cc3Cl)c2)c1 | inconclusive: 5.36 µM [inhibitor, partial curve, poor fit]
Clc1ccc(-n2nnc(-c3cccnc3)n2)cc1Cl | inconclusive: 10.7 µM [inhibitor, partial curve]
Cc1cccc(SCC(=O)Nc2ccccc2[N+](=O)[O-])c1 | inactive
COc1ccc(/C(N)=N/OC(=O)c2cc(-c3ccccc3)nc3ccccc23)cc1 | inconclusive: 10.7 µM [inhibitor, partial curve, poor fit]
CCN(CC)S(=O)(=O)c1ccc(C(=O)Nc2cc(C)on2)cc1 | inactive
COCC(=O)Nc1cc(C(=O)Nc2ccccc2C)ccc1Cl | inconclusive: 37.9 µM [inhibitor, partial curve, poor fit]
CCCCCCCSc1nnc(N)s1 | inactive
Cc1ccc(NC(=O)CN2C(=O)CC(c3ccc(C)c(C)c3)=Nc3ccccc32)cc1 | inconclusive: 10.7 µM [inhibitor, partial curve, poor fit]
O=C(O)CSCC(=O)N1CCN(c2nc3cc(Cl)ccc3s2)CC1 | inconclusive: 37.9 µM [inhibitor, partial curve, poor fit]
COc1ccc(-c2noc(COC(=O)c3ccco3)n2)cc1OC | inactive
Cc1cc(C(=O)O)ccc1-c1ccc(/C=C2\NC(=O)N(Cc3ccccc3Cl)C2=O)o1 | inconclusive: 37.9 µM [inhibitor, partial curve, poor fit]
CCC(CC)C(=O)Nc1cc(-c2nc3cccnc3s2)ccc1C | active: 12 µM
CCC(=O)c1cn(CC(=O)O)c2ccccc12 | inconclusive: 0.012 µM [inhibitor, partial curve, poor fit]
Cc1ccc2c(=O)cc(C(=O)Nc3c(C(=O)c4ccc(F)cc4)oc4ccccc34)oc2c1C | inactive
Cc1cc(C)n(CCNC(=O)c2cc(COc3ccc(F)cc3Cl)on2)n1 | inconclusive: 21.3 µM [inhibitor, single point]
Cc1ccn2c(C(=O)CSc3ccccc3)c(C)nc2c1 | inconclusive: 21.3 µM [inhibitor, partial curve, poor fit]
Cc1ccc2nc(NC(=O)C3=NN(c4ccccc4)C(=O)CC3)sc2c1 | inconclusive: 23.9 µM [inhibitor, partial curve]
Cc1ccc(OCC(=O)Nc2ccc(O)c(C(=O)O)c2)cc1C | active: 16.9 µM
COc1ccc(-c2nc(C#N)c(NCCc3ccccc3)o2)cc1OC | active: 6.75 µM
NC(=O)C1CCN(C(=O)CCSc2ccccc2)CC1 | inconclusive: 37.9 µM [inhibitor, single point]
Cn1cccc1-c1cc(C(=O)N/N=C/C=C/c2ccccc2)[nH]n1 | inconclusive: 37.9 µM [inhibitor, partial curve, poor fit]
CC(C)CC(=O)OCc1cc(=O)n2nc(C3CCCCC3)sc2n1 | inconclusive: 19 µM [inhibitor, partial curve, poor fit]

Structure (SMILES) | Potency
Nc1nc(SCC(=O)Nc2ccc(Oc3ccccc3)cc2)n[nH]1 | inconclusive: 23.9 µM [inhibitor, partial curve, poor fit]
CCOC(=O)/C(C#N)=C1/C=CN(c2ccccc2)C=N1 | inconclusive: 26.9 µM [inhibitor, partial curve, poor fit]
Cn1cccc1C(=O)OCC(=O)c1cc2ccccc2o1 | active: 12 µM
CC(=O)Nc1ccc(OC(=O)Oc2ccc(NC(C)=O)cc2)cc1 | inconclusive: 23.9 µM [inhibitor, partial curve, poor fit]
Cn1c(=O)n(C)c2cc(NC(=O)COc3ccc(Cl)cc3)ccc21 | inactive
COC(=O)N/N=C/c1cn(Cc2ccccc2F)c2ccccc12 | inactive
COc1ccc(N=Nc2c(C)n[nH]c2C)cc1 | inconclusive: 21.3 µM [inhibitor, partial curve, poor fit]
Cc1ccc(NC(=O)CN2C(=O)N/C(=C/c3cc(C)n(-c4ccc(C(=O)O)cc4)c3C)C2=O)cc1 | inconclusive: 21.3 µM [inhibitor, partial curve, poor fit]
CCc1sc(NC(=O)COC)nc1-c1ccccc1 | inconclusive: 21.3 µM [inhibitor, single point]
C/C(=N\NC(=O)CN(c1ccccc1)S(C)(=O)=O)c1ccccc1O | inactive
CCNc1nc(-c2cc(C)n(Cc3ccco3)c2C)cs1 | inconclusive: 30.1 µM [inhibitor, partial curve]
O=[N+]([O-])c1ccc(O)c(-c2ccnc3cc(-c4ccccc4)nn23)c1 | inconclusive: 21.3 µM [inhibitor, partial curve]
COc1ccc2c(c1)CCc1cnc(N)nc1-2 | inconclusive: 26.9 µM [inhibitor, single point]
O=C(Nc1cccc(Br)c1)c1ccc2snnc2c1 | inconclusive: 9.53 µM [inhibitor, partial curve]
NN/C(=C\[N+](=O)[O-])Nc1ccc(Cl)cc1 | inconclusive: 37.9 µM [inhibitor, partial curve, poor fit]
N=C1CCC(=N)c2c1c(O)c1ccccc1c2O | inconclusive: 23.9 µM [inhibitor, single point]
C/C(=N\NC(=O)CSc1nc2ccccc2o1)c1cccc(O)c1 | inactive
Cc1cccc(-c2csc(N3CCC(C(N)=O)CC3)n2)c1 | inconclusive: 13.5 µM [inhibitor, partial curve]
CCc1ccc(-c2nc(SCC(=O)N(CC)C3CCS(=O)(=O)C3)n[nH]2)cc1 (stereo not given) | active: 3.38 µM
CCOc1nc(C)ccc1-c1noc(-c2ccccn2)n1 | inconclusive: 21.3 µM [inhibitor, single point]
COc1ccc(C(=O)NC(Cc2ccc(OC(=O)c3ccc(OC)cc3)cc2)C(=O)O)cc1 (stereo not given) | active: 12 µM
CC(Sc1nnc(CNC(=O)c2ccco2)n1C)C(=O)Nc1nccs1 (stereo not given) | inactive
